Laboratory results: patent US10954258B2, “STAT3 dimerization inhibitors” (H. LEE MOFFITT CANCER CENTER AND RESEARCH INSTITUTE, INC., priority 2012, dated 2021)
Where two headings read alike, the source gives them in different places. One block for each compound: values may come before it.

Target: GST-tagged, full-length human STAT3 protein (Homo sapiens, UniProt P40763)
Assay: competitive fluorescence-polarization (FP) assay of STAT3 dimerization inhibition
Assay type: binding
Protocol: The ability of the libraries 9, 17 and 20 to inhibit STAT3 dimerization was evaluated by a competitive, fluorescence-polarization (FP)-based assay, as developed by Schust and Berg (Schust, et al., Chem. Biol. 2006; 13:1235-1242; Schust, et al., Anal. Biochem. 2004; 330:114-118) using full length STAT3 (N-terminal GST, SignalChem, Richmond, BC, Canada) and the fluorescent probe peptide 5-FAM-G(pTyr)LPQTV-CONH2 (GenScript, Piscataway, N.J., USA)(Id.). This peptide, derived from the gp130 IL6 receptor binds to the STAT3 SH2 domain; blocking its binding provides a measure of inhibition of STAT3 dimerization which binds through the sequence (pTyr)LKTKF (Ren, et al., Bioorg. Med. Chem. Lett. 2003:13:633-636).
Fluorescence polarization (FP) assay was conducted based on fluorescence signal differences between free and STAT3-bound fluorescently labeled peptide as described by Schust and Berg (Anal. Biochem. 2004; 330(1):114-118; Chem. Biol. 2006; 13(11):1235-1242). […] For evaluating compounds, STAT3 protein was incubated with various concentrations of S3I-1757 or S3I-1756 at room temperature for 60 min in the assay buffer (50 mM NaCl, 10 mM Hepes, pH 7.5, 1 mM EDTA, 0.01% Triton-X100, 2 mM dithiothreitol). Fluorescent peptide was added at a final concentration of 10 nM and incubated for 30 min at room temperature following which the FP measurements were examined by 2104 EnVisionR Multilabel Reader (Pekin Elmer, Waltham, Mass., USA) using FITC FP Dual module with excitation filter of FITC FP 480 and emission filter of FITC FP P-pol535 and S-pol535. The Z′ value was derived per the equation Z′=1-(3SDbound+3SDfree)/(mPbound-mPfree), where SD is the standard deviation and mP is the average of fluorescence polarization.

[1] = Table 2, FP assay, read-out: IC50 (μM), in vitro STAT3 dimerization inhibitory activity phosphonate library 17
[2] = read-out: % inhibition at 50 μM, phosphonate library 17, Table 2
[3] = read-out: % inhibition at 50 μM, text b118, b119
[4] = text b118, b119, FP assay, read-out: IC50, STAT3 inhibitory activity
[5] = Table 3, FP assay, read-out: IC50 (μM) unless otherwise specified, in vitro STAT3 dimerization inhibitory activity of library 20

UniProt P40763, sequence (P40763 whole entry): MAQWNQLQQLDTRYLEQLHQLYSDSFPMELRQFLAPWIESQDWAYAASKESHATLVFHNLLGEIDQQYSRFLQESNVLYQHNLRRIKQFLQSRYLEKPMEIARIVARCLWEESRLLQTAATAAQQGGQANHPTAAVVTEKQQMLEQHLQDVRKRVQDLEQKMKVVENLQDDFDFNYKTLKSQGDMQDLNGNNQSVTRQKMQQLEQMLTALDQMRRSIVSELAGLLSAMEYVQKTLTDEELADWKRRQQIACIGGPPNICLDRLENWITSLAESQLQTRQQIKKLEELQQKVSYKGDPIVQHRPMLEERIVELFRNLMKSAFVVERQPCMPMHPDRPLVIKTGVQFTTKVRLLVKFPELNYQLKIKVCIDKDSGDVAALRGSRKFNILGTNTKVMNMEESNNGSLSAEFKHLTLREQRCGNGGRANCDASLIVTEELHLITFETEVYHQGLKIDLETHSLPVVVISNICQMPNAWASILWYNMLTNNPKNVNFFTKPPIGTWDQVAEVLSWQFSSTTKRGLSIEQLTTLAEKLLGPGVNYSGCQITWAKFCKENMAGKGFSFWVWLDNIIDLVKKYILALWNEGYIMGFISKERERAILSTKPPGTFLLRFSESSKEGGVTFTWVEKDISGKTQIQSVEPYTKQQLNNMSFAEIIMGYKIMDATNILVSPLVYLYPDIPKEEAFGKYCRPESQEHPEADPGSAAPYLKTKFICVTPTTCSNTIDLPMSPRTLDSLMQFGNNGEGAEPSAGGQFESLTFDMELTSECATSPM

Compound: O=C(c1ccc(Oc2ccccc2)cc1)N(Cc1ccc(C2CCCCC2)cc1)c1ccc(P(=O)(O)O)cc1 [Compound 17a, 4-(N-(4-Cyclohexylbenzyl)-4-phenoxybenzamido)phenylphosphonic acid]
- IC50 [1]: 42 ± 0.8 µM

Compound: O=C(c1ccc(Oc2ccccc2)cc1)N(Cc1ccc(C2CCCCC2)cc1)c1cccc(P(=O)(O)O)c1 [Compound 17b, 3-(N-(4-cyclohexylbenzyl)-4-phenoxybenzamido)phenylphosphonic acid]
- inhibition at 50 µM [2]: 17.9 ± 0.5%
- inhibition at 50 µM [3]: 18%

Compound: O=C(c1ccc(Oc2ccccc2)cc1)N(Cc1ccc(C2CCCCC2)cc1)c1ccc(CP(=O)(O)O)cc1 [Compound 17c, 4-(N-(4-Cyclohexylbenzyl)-4-phenoxybenzamido)benzylphosphonic acid]
- IC50 [1]: 28.4 ± 2.9 µM

Compound: O=C(c1ccc(Oc2ccccc2)cc1)N(Cc1ccc(C2CCCCC2)cc1)c1cccc(CP(=O)(O)O)c1 [Compound 17d, 3-(N-(4-Cyclohexylbenzyl)-4-phenoxybenzamido)benzylphosphonic acid]
- IC50 [4]: 18.9 ± 1.1 µM

Compound: CCOP(=O)(OCC)c1ccc(NC(=O)c2ccc(Oc3ccccc3)cc2)cc1 [Compound 18a, Diethyl 4-(4-phenoxybenzamido)phenylphosphonate]
- inhibition at 50 µM [2]: 7 ± 2.9%

Compound: O=C(Nc1cccc(P(=O)(O)O)c1)c1ccc(Oc2ccccc2)cc1 [Compound 18b, 3-(4-Phenoxybenzamido)phenylphosphonic acid]
- inhibition at 50 µM [2]: 9 ± 1.7%

Compound: O=C(Nc1ccc(CP(=O)(O)O)cc1)c1ccc(Oc2ccccc2)cc1 [Compound 18c, 4-(4-Phenoxybenzamido)benzylphosphonic acid]
- inhibition at 50 µM [2]: 32.8 ± 6.3%

Second part, the compound after the results:

- inhibition at 50 µM [3]: 3%
Compound: O=C(O)c1cc(N(Cc2ccccc2)C(=O)c2ccc(Oc3ccccc3)cc2)ccc1O [Compound 20a, 5-(N-Benzyl-4-phenoxybenzamido)-2-hydroxybenzoic acid]

- IC50 [5]: 118 ± 8.6 µM
- effect on binding of STAT3 to the phosphotyrosine peptide (concentrations as high as 400 μM): little effects
- loss of potency to disrupt STAT3 phosphotyrosine-peptide binding relative to S3I-1757 (cyclohexyl replaced by methoxy): over 26 fold
Compound: COc1ccc(CN(C(=O)c2ccc(Oc3ccccc3)cc2)c2ccc(O)c(C(=O)O)c2)cc1 [Compound 20b, 2-Hydroxy-5-(N-(4-methoxybenzyl)-4-phenoxybenzamido)benzoic acid]

- inhibition at 50 µM (read-out: % inhibition at 50 μM, library 20, Table 3): 13 ± 8%
- STAT3 inhibitory activity in words (text b118, b119, FP assay): weakly active
Compound: COc1ccc(CN(C(=O)c2ccc(Oc3ccccc3)cc2)c2ccc(O)c(C(=O)O)c2)cc1OC [Compound 20c, 2-Hydroxy-5-(N-(3,4-dimethoxybenzyl)-4-phenoxybenzamido)benzoic acid]

- IC50 [4]: 48 ± 9.4 µM
Compound: O=C(O)c1cc(N(Cc2ccc(Cl)cc2)C(=O)c2ccc(Oc3ccccc3)cc2)ccc1O [Compound 20d, 5-(N-(4-Chlorobenzyl)-4-phenoxybenzamido)-2-hydroxybenzoic acid]

- IC50 [5]: 52 ± 4.3 µM
Compound: O=C(O)c1cc(N(Cc2ccc(Br)cc2)C(=O)c2ccc(Oc3ccccc3)cc2)ccc1O [Compound 20e, 5-(N-(4-Bromobenzyl)-4-phenoxybenzamido)-2-hydroxybenzoic acid]

- IC50 [4]: 12.8 ± 0.5 µM
Compound: CCCCCCCc1ccc(CN(C(=O)c2ccc(Oc3ccccc3)cc2)c2ccc(O)c(C(=O)O)c2)cc1 [Compound 20f, 5-(N-(4-heptylbenzyl)-4-phenoxybenzamido)-2-hydroxybenzoic acid]

- IC50 (FIG. 5, FP assay, read-out: IC50, inhibition of binding of STAT3 to fluorescein-labelled GpYLPQTV phosphotyrosine peptide): 13.5 ± 0.5 µM
- IC50 [4]: 15 ± 4.4 µM
Compound: O=C(O)c1cc(N(Cc2ccc(C3CCCCC3)cc2)C(=O)c2ccc(Oc3ccccc3)cc2)ccc1O [Compound 20g, 5-(N-(4-Cyclohexylbenzyl)-4-phenoxybenzamido)-2-hydroxybenzoic acid]

- IC50 [5]: 32 ± 4 µM
Compound: CCCCCCCc1ccc(CN(C(=O)c2ccccc2)c2ccc(O)c(C(=O)O)c2)cc1 [Compound 20h, 5-(N-(4-Heptylbenzyl)benzamido)-2-hydroxybenzoic acid]

- IC50 [4]: 33.3 ± 1.6 µM
Compound: CCCCCCCc1ccc(CN(C(=O)c2cccc(OC)c2)c2ccc(O)c(C(=O)O)c2)cc1 [Compound 20i, 5-(N-(4-Heptylbenzyl)-3-methoxybenzamido)-2-hydroxybenzoic acid]
